# Source: patent publication US8895568B2, “Compositions comprising substituted pteridines as agrochemicals” (Dow AgroSciences LLC, priority 2009, dated 2014)
# The name of at least one read-out is uncertain.
# Legend:
# [1] = test system: Puccinia recondita tritici; assay: Leaf Rust of Wheat (PUCCRT), foliar spray, percent disease control; assay type: in vivo; details: in vivo
# Leptosphaeria nodorum = assay: Glume Blotch of Wheat (LEPTNO), foliar spray, percent disease control; assay type: in vivo; details: in vivo
Structure (SMILES),PUCCRT percent control [1],LEPTNO percent control (Leptosphaeria nodorum)
Fc1c(F)c(C(F)(F)F)c(F)c(F)c1Oc1ccc(CCNc2ncnc3nccnc23)cc1 [Compound 112],*** (*** = 80-100 percent control),*** (*** = 80-100 percent control)
Fc1cc(C(F)(F)F)ccc1Oc1ccc(CCNc2ncnc3nccnc23)cc1 [Compound 113],*** (*** = 80-100 percent control),*** (*** = 80-100 percent control)
Fc1cc(Oc2ncc(C(F)(F)F)cc2F)ccc1CCNc1ncnc2nccnc12 [Compound 114],*** (*** = 80-100 percent control),*** (*** = 80-100 percent control)
FC(F)(F)c1cc(Oc2ccc(CCNc3ncnc4nccnc34)cc2)nc(C(F)(F)F)c1 [Compound 115],*** (*** = 80-100 percent control),* (* = 0-49 percent control)
Fc1cc(C(F)(F)F)cnc1Oc1ccc(CCNc2ncnc3ncc(Cl)nc23)cc1 [Compound 118],*** (*** = 80-100 percent control),** (** = 50-79 percent control)
N#Cc1c(Cl)cncc1Oc1ccc(CCNc2ncnc3ncc(Cl)nc23)cc1 [Compound 119],** (** = 50-79 percent control),** (** = 50-79 percent control)
Cc1cnc2ncnc(NCCc3ccc(Oc4cncc(Cl)c4C#N)cc3)c2n1 [Compound 120],*** (*** = 80-100 percent control),** (** = 50-79 percent control)
"Fc1ccc(-c2ccc(CCNc3ncnc4nccnc34)cc2)cn1 [Compound 121, {2-[4-(6-Fluoropyridin-3-yl)-phenyl]-ethyl}-pteridin-4-yl-amine]",*** (*** = 80-100 percent control),*** (*** = 80-100 percent control)
FC(F)(F)c1cccc(-c2ccc(CCNc3ncnc4nccnc34)cc2)c1 [Compound 122],*** (*** = 80-100 percent control),** (** = 50-79 percent control)
FC(F)(F)c1ccc(Oc2ccc(CCNc3ncnc4ncc(Cl)nc34)cc2)nc1 [Compound 124],*** (*** = 80-100 percent control),*** (*** = 80-100 percent control)
FC(F)(F)c1ccc(Oc2ccc(CCNc3ncnc4nccnc34)cn2)cc1 [Compound 126],*** (*** = 80-100 percent control),*** (*** = 80-100 percent control)
N#Cc1cc2ccccc2nc1Oc1ccc(CCNc2ncnc3nccnc23)cc1 [Compound 127],*** (*** = 80-100 percent control),** (** = 50-79 percent control)
FC(F)(F)c1nc(Oc2ccc(CCNc3ncnc4nccnc34)cc2)sc1Cl [Compound 128],*** (*** = 80-100 percent control),** (** = 50-79 percent control)
Cc1cc(Oc2cc(C(F)(F)F)ccn2)ccc1CCNc1ncnc2nccnc12 [Compound 129],*** (*** = 80-100 percent control),*** (*** = 80-100 percent control)
COc1cc(CCNc2ncnc3nccnc23)ccc1Oc1ncc(C(F)(F)F)cc1F [Compound 130],*** (*** = 80-100 percent control),** (** = 50-79 percent control)
COc1ccc(CCNc2ncnc3nc(C)c(C)nc23)cc1 [Compound 131],*** (*** = 80-100 percent control),* (* = 0-49 percent control)
"CC(C)c1ccc(Oc2ccc(CCNc3ncnc4nccnc34)cc2)cc1 [Compound 132, {2-[4-(4-Isopropylphenoxy)-phenyl]-ethyl}-pteridin-4-yl-amine]",*** (*** = 80-100 percent control),** (** = 50-79 percent control)
"CC(C)(C)[Si](C)(C)Oc1ccc(CCNc2ncnc3nccnc23)cc1 [Compound 133, {2-[4-(tert-Butyldimethylsilanyloxy)-phenyl]-ethyl}-pteridin-4-yl-amine]",*** (*** = 80-100 percent control),* (* = 0-49 percent control)
"CC(C)(C)OC(=O)N(CCc1ccc(O[Si](C)(C)C(C)(C)C)cc1)c1ncnc2nccnc12 [Compound 134, {2-[4-(tert-Butyldimethylsilanyloxy)-phenyl]-ethyl}-pteridin-4-yl-carbamic acid tert-butyl ester]",*** (*** = 80-100 percent control),* (* = 0-49 percent control)
COC(=O)c1ccnc(Oc2ccc(CCNc3ncnc4nccnc34)cc2)c1 [Compound 135],*** (*** = 80-100 percent control),** (** = 50-79 percent control)
Cc1ccc(Oc2ccc(CCNc3ncnc4nccnc34)cc2)cc1 [Compound 136],*** (*** = 80-100 percent control),** (** = 50-79 percent control)
CCOC(=O)c1ccc(Oc2ccc(CCNc3ncnc4nccnc34)cc2)nc1 [Compound 137],*** (*** = 80-100 percent control),** (** = 50-79 percent control)
"Fc1nc(Oc2ccc(CCNc3ncnc4nccnc34)cc2)c(F)c(C(F)(F)F)c1F [Compound 138, Pteridin-4-yl-{2-[4-(3,5,6-trifluoro-4-trifluoromethyl-pyridin-2-yloxy)-phenyl]-ethyl}-amine]",*** (*** = 80-100 percent control),** (** = 50-79 percent control)

Structure (SMILES),PUCCRT percent control [1],LEPTNO percent control (Leptosphaeria nodorum)
CCc1ccc(Oc2ccc(CCN(C(=O)OC(C)(C)C)c3ncnc4nccnc34)cc2)cc1 [Compound 139],*** (*** = 80-100 percent control),* (* = 0-49 percent control)
"c1ccc(COc2ccc(CCOc3ccc(CCNc4ncnc5nccnc45)cc3)cc2)cc1 [Compound 140, (2-{4-[2-(4-Benzyloxy-phenyl)-ethoxy]-phenyl}-ethyl)-pteridin-4-yl-amine]",*** (*** = 80-100 percent control),* (* = 0-49 percent control)
Cc1cc(CCNc2ncnc3nccnc23)ccc1Oc1ccc(C(F)(F)F)cn1 [Compound 141],*** (*** = 80-100 percent control),*** (*** = 80-100 percent control)
Cc1cc(CCNc2ncnc3nccnc23)ccc1Oc1cncc(Cl)c1C#N [Compound 142],*** (*** = 80-100 percent control),** (** = 50-79 percent control)
Cc1cc(CCNc2ncnc3nccnc23)ccc1Oc1ncc(C(F)(F)F)cc1F [Compound 143],*** (*** = 80-100 percent control),*** (*** = 80-100 percent control)
Cc1c(CCNc2ncnc3nccnc23)ccc(Oc2ccc(C(F)(F)F)cn2)c1C [Compound 144],*** (*** = 80-100 percent control),*** (*** = 80-100 percent control)
Cc1c(CCNc2ncnc3nccnc23)ccc(Oc2cc(C(F)(F)F)ccn2)c1C [Compound 145],*** (*** = 80-100 percent control),*** (*** = 80-100 percent control)
CCc1ncnc(Oc2ccc(CCNc3ncnc4nccnc34)cc2)c1Cl [Compound 146],*** (*** = 80-100 percent control),** (** = 50-79 percent control)
Cc1c(CCNc2ncnc3nccnc23)ccc(Oc2cncc(Cl)c2C#N)c1C [Compound 147],*** (*** = 80-100 percent control),** (** = 50-79 percent control)
Cc1c(CCNc2ncnc3nccnc23)ccc(Oc2ncc(C(F)(F)F)cc2F)c1C [Compound 148],*** (*** = 80-100 percent control),** (** = 50-79 percent control)
Cc1c(CCNc2ncnc3nccnc23)ccc(Oc2c(F)cnc(C(F)(F)F)c2F)c1C [Compound 149],*** (*** = 80-100 percent control),** (** = 50-79 percent control)
Fc1cc(F)c(Oc2ccc(CCNc3ncnc4nccnc34)cc2)nc1F [Compound 150],*** (*** = 80-100 percent control),*** (*** = 80-100 percent control)
COc1cc(C)c(CCNc2ncnc3nccnc23)cc1C [Compound 151],*** (*** = 80-100 percent control),* (* = 0-49 percent control)
Cc1cc(Oc2cc(C(F)(F)F)ccn2)c(C)cc1CCNc1ncnc2nccnc12 [Compound 152],*** (*** = 80-100 percent control),*** (*** = 80-100 percent control)
CCOc1cc(CCNc2ncnc3nccnc23)ccc1Oc1cc(C(F)(F)F)ccn1 [Compound 153],*** (*** = 80-100 percent control),*** (*** = 80-100 percent control)
Cc1cc(CCNc2ncnc3nccnc23)ccc1Oc1cc(C#N)ccn1 [Compound 155],*** (*** = 80-100 percent control),** (** = 50-79 percent control)
Cc1cc(Oc2ccc(C(F)(F)F)cn2)c(C)cc1CCNc1ncnc2nccnc12 [Compound 156],*** (*** = 80-100 percent control),*** (*** = 80-100 percent control)
CCOc1cc(CCNc2ncnc3nccnc23)ccc1Oc1ccc(C(F)(F)F)cn1 [Compound 157],*** (*** = 80-100 percent control),** (** = 50-79 percent control)
COc1ccc(CCNc2ncnc3nccnc23)cc1Cl [Compound 158],*** (*** = 80-100 percent control),** (** = 50-79 percent control)
Fc1cccc(Oc2ccc(OCCNc3ncnc4nccnc34)cc2)n1 [Compound 159],*** (*** = 80-100 percent control),* (* = 0-49 percent control)
FC(F)(F)c1cccnc1Oc1ccc(OCCNc2ncnc3nccnc23)cc1 [Compound 160],*** (*** = 80-100 percent control),** (** = 50-79 percent control)
Cc1nc2ncnc(NCCc3ccc(O)cc3)c2nc1C [Compound 161],** (** = 50-79 percent control),* (* = 0-49 percent control)
